Among the data in article PMC7819943, “Rice protein-binding microarrays: a tool to detect cis-acting elements near promoter regions in rice” are binding signal values, retold here.

The other results are listed elsewhere or left out.

This assay has as its target T1, OsWOX13 (Oryza sativa, UniProt Q5QMM3 1-267).
T1 sequence: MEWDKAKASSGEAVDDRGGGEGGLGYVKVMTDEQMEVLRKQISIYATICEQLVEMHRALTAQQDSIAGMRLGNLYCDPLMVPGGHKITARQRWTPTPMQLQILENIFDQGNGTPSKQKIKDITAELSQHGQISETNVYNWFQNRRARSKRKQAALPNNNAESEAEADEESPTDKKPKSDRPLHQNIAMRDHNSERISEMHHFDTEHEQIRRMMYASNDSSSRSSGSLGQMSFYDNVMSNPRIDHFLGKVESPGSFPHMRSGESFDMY
Briefly: protein-binding microarray (RPBM); PBS, 2% BSA, 51.3 ng/ul salmon testes DNA, 50 uM zinc acetate, 200 nM TF, 25 C, 1 h; high values mean tight binding. As to conditions: protein: recombinant; tags: N-terminal polyhistidine and DsRed monomer fusion (pET32a); label: CyDye5-dUTP incorporated in the synthesized complementary strand; 3' TTTTT single-stranded linker to array surface; dsDNA, one strand shown. A digest of the protocol:
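The binding signal is fluorescence intensity per array feature (arbitrary units). Readings came from an Axon 4000B scanner after a washed, 2% BSA-blocked, double-stranded custom Agilent array had been incubated for 1 h at 25 °C with 200 nM protein and 50 µM zinc acetate. The protein was a Ni–NTA-purified transcription factor fused N-terminally to polyhistidine and DsRed, expressed in E. coli BL21-CodonPlus.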
In the case of “CTTGAATAATTGAGTTTCACTTTGGAATGTATTTCCACCTCGGAGTCACCTAGTGCAG”, the binding signal is 18300 fluorescence intensity (a.u.).
Turning to “CAAATGATGGAGGTTTCAAATTATACTGTACTTCAGCCATCGGAGTCACCTAGTGCAG”, the binding signal was 7400 fluorescence intensity (a.u.).
Turning to “TATAAATTTAGACAGACAGATGAATTAACAAATCAATTTTCGGAGTCACCTAGTGCAG”, the binding signal was 26100 fluorescence intensity (a.u.).
Consider “GAGATTGAATGCTGATCCGATCACCAGGAACAAAGTTGATCGGAGTCACCTAGTGCAG”, for which the binding signal was 22500 fluorescence intensity (a.u.).
Take “TTCTCATCACGTTTAATTATAGCATGATGGTTCATATTTCCGGAGTCACCTAGTGCAG”: the binding signal is 8970 fluorescence intensity (a.u.).
Turning to “GATGACGAATTTTAATTTTAAAGGAGTTGTCTGATCTATACGGAGTCACCTAGTGCAG”, the binding signal is 7180 fluorescence intensity (a.u.).
For “ATTTATTAATTAATAATTCCAGCTCCGGTTTCGTCTCTGCCGGAGTCACCTAGTGCAG” the value was 42400 fluorescence intensity (a.u.); for “TGCAAATTTTGAATTTGCTGTTCATTGCGGTTAAGTAATTCGGAGTCACCTAGTGCAG”, 3450 fluorescence intensity (a.u.).
As for “TTGTAGCTGTCACACAAATTAGATAGCAAGGAAGCGCACACGGAGTCACCTAGTGCAG”, the binding signal was 5120 fluorescence intensity (a.u.).
“CGTTTATTAATTGTTATAACGAGTGTTTTATTCCAAGATTCGGAGTCACCTAGTGCAG”: the binding signal was 11700 fluorescence intensity (a.u.).
For “AAAATTGACGGTCGGATTTGGTACTTGAGGAACGTCAACACGGAGTCACCTAGTGCAG”, the binding signal is 23000 fluorescence intensity (a.u.).
Under “TGATGACTTAACAGTTGATTCAGTCATAGCATTTGGACTTCGGAGTCACCTAGTGCAG” stands 3710 fluorescence intensity (a.u.); under “ATGCTAAACAAATGTGTTTTGATTTGGACTTGTGTAGTTGCGGAGTCACCTAGTGCAG”, 3660 fluorescence intensity (a.u.); under “CCAATTTATATGAGATTGATATGGAAAACCGTAGAGTACGCGGAGTCACCTAGTGCAG”, 22200 fluorescence intensity (a.u.).
With “CTGACAGGTCTGATATAGTAATAATGGCGTAGATGGATAACGGAGTCACCTAGTGCAG”, the binding signal was 7450 fluorescence intensity (a.u.).
Under “CTAGGATTAGTAACTGTATAGAACCACACCATCTGTCCAACGGAGTCACCTAGTGCAG” stands 3420 fluorescence intensity (a.u.); under “TGTTCTCAATCAGTATTTGATCTTTGCGTTTAGTCGTCTCCGGAGTCACCTAGTGCAG”, 14200 fluorescence intensity (a.u.).
With “ATCTTCATTAATTAATTTATATAAATACCTACGTTAATGGCGGAGTCACCTAGTGCAG”, the binding signal is 28200 fluorescence intensity (a.u.).
On to “AGTAGGAAACCAATCAGTCCCAGAAGAATTTTACACATTCCGGAGTCACCTAGTGCAG”, for which the binding signal is 3230 fluorescence intensity (a.u.).
For the sequence “CCCAGAAGTTAACATCAATTTATTCAGTCCTATGTTCTCGCGGAGTCACCTAGTGCAG”, the binding signal is 6860 fluorescence intensity (a.u.).
“GATTGATTTAGTTTGGTGATGCTAATGTAATGTTAATGTTCGGAGTCACCTAGTGCAG”: the binding signal is 21400 fluorescence intensity (a.u.).
Take “ACATATGTAATTTATAAACTTACAATATAAATACATGCTGCGGAGTCACCTAGTGCAG”: the binding signal is 17000 fluorescence intensity (a.u.).
Consider “TAATATATCAAGCATAAATTTATGTTATCATTTTCTTTCGCGGAGTCACCTAGTGCAG”, for which the binding signal is 3920 fluorescence intensity (a.u.).
Under “CTAATTAATCTGTCATTAGCTTATGTGGGTTACTATAGTACGGAGTCACCTAGTGCAG” stands 15300 fluorescence intensity (a.u.); under “ACTTATATTCTTTAACTTATGATTGGAGGTATATACTATACGGAGTCACCTAGTGCAG”, 5760 fluorescence intensity (a.u.).
Take “ATCTAAATAATTGAAGTAGAAAAGTTTGAAAATCAGTTGTCGGAGTCACCTAGTGCAG”: the binding signal is 9570 fluorescence intensity (a.u.).
Consider “CCCCATCTGTATTTTAAATTTATATCCGCCACTGATTGTACGGAGTCACCTAGTGCAG”, for which the binding signal was 4240 fluorescence intensity (a.u.).
Regarding “ATCAAGATTTGATGACTCAGTCTTTAGAAGTTGCTTATCACGGAGTCACCTAGTGCAG”, the binding signal was 4350 fluorescence intensity (a.u.).
For “CTAAGATCATGATTTTAAGATTTAACTCCAATACGCAAAACGGAGTCACCTAGTGCAG” the value was 3650 fluorescence intensity (a.u.); for “GGTTCAAATTAACTTTTCAATCTTGGCTGTGTTTGGATCCCGGAGTCACCTAGTGCAG”, 21400 fluorescence intensity (a.u.).
Regarding “GAACATGATTGTGAATGAAAATGAGCTGCTAATAGGTCACCGGAGTCACCTAGTGCAG”, the binding signal was 21300 fluorescence intensity (a.u.).
Regarding “TATAGACTGATAAGATATATACAAGCAGCTTTGCTTTCCACGGAGTCACCTAGTGCAG”, the binding signal was 5540 fluorescence intensity (a.u.).
In the case of “GTAAAATGATGGAAAATGTAACGGTAGGGGCATGGAAGGGCGGAGTCACCTAGTGCAG”, the binding signal is 6210 fluorescence intensity (a.u.).
As to “GGTTGACTGCTCTCTGAAATTAATTTTATTCGTTTAGTTACGGAGTCACCTAGTGCAG”, the binding signal is 30500 fluorescence intensity (a.u.).
For “TTAATTAGAGTTCAAATGAGAGTAAGAAATGACAGATAGGCGGAGTCACCTAGTGCAG”, the binding signal is 6020 fluorescence intensity (a.u.).
Turning to “CTAAATTTGTAATTGTAATGTACTACTTTAATCCTTCGTACGGAGTCACCTAGTGCAG”, the binding signal was 53100 fluorescence intensity (a.u.).
With “ATACTTAATTTTGGGCTTTCCTATTTTCCGGCCATTTTACCGGAGTCACCTAGTGCAG”, the binding signal was 7030 fluorescence intensity (a.u.).
Consider “GTTAATTACTTTTATGCTGCAAATGCACAATGAAGTAAAGCGGAGTCACCTAGTGCAG”, for which the binding signal is 20600 fluorescence intensity (a.u.).
Turning to “GCTTAATCGAATCAGCCATCTGATGGGCTTCGGCTGAAACCGGAGTCACCTAGTGCAG”, the binding signal is 4270 fluorescence intensity (a.u.).
As to “ATTATTGTTTTGCAATTTATAATAATCATCCATATGCATGCGGAGTCACCTAGTGCAG”, the binding signal was 4650 fluorescence intensity (a.u.).
Regarding “CTGATGACGACGGTTAATTGTATAATTTCACCGCGCCTAACGGAGTCACCTAGTGCAG”, the binding signal was 48900 fluorescence intensity (a.u.).
Consider “AGATGATTTCTAGCGGTGGAAGGGTAGAATTGTAACTTCGCGGAGTCACCTAGTGCAG”, for which the binding signal is 4290 fluorescence intensity (a.u.).
